{
  "source": "the supplement of paper PMC4166925",
  "note": "± gives the standard deviation of the averaged measurements. The full ranking holds about 33,000 sequences; the median of “E-score (dimensionless, -0.5 to 0.5)” is about -0.049, and the highest 2% start at about 0.37. The list shows a part of the results.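 Note: 200 nM protein in PBS on universal arrays averaged over duplicate arrays.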",
  "data": [
    {"test_system": "T1, PmTbr T-box DNA-binding domain (GST fusion)", "T1 sequence": "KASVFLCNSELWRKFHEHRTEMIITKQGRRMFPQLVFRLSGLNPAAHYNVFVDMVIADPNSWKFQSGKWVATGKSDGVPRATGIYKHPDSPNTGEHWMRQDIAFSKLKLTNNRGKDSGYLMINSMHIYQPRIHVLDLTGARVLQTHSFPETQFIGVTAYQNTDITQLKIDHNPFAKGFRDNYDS", "experiment": "PBM E-score of 8-mer (E-score (dimensionless, -0.5 to 0.5)); Tbr is Tbrain of the sea star Patiria miniata (Pm) or the sea urchin Strongylocentrotus purpuratus (Sp); higher = stronger binding preference; most listed sequences are background and not binding sites", "settings": "the construct has about 5 more residues each side", "method": "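Universal protein-binding microarray (Agilent AMADID 016060, 60-bp probes with a 35-bp variable region) incubated with 200 nM GST-fused Patiria miniata Tbr T-box DNA-binding domain (residues 272-466) in PBS pH 7.5. Scored for every ungapped 8-mer (given with its reverse complement) by the Universal PBM Analysis Suite as E-score (modified Wilcoxon-Mann-Whitney enrichment, range -0.5 to 0.5; >0.45 counts as bound) and Z-score of median probe intensity. Two replicate arrays (datasets 1 and 2).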", "values": [
      {"sequence": "ATCCGGGG", "PBM E-score of 8-mer": "0.0462 ± 0.1"},
      {"sequence": "AATTAACA", "PBM E-score of 8-mer": "0.288 ± 0.061"},
      {"sequence": "TGGCGACA", "PBM E-score of 8-mer": "0.3273 ± 0.0022"},
      {"sequence": "TAAAACTA", "PBM E-score of 8-mer": "-0.0853 ± 0.14"},
      {"sequence": "AGCTGTGA", "PBM E-score of 8-mer": "0.404 ± 0.017"},
      {"sequence": "CTTTAGTA", "PBM E-score of 8-mer": "-0.0763 ± 0.042"},
      {"sequence": "AGAATGAT", "PBM E-score of 8-mer": "-0.0138 ± 0.073"},
      {"sequence": "AAGTACTC", "PBM E-score of 8-mer": "-0.0949 ± 0.013"},
      {"sequence": "CAATAGTA", "PBM E-score of 8-mer": "-0.241 ± 0.061"},
      {"sequence": "GTTCGTAA", "PBM E-score of 8-mer": "-0.121 ± 0.037"},
      {"sequence": "GTTGTCCA", "PBM E-score of 8-mer": "0.0612 ± 0.017"},
      {"sequence": "AAATCCAG", "PBM E-score of 8-mer": "-0.0508 ± 0.012"},
      {"sequence": "ACGCTTAT", "PBM E-score of 8-mer": "0.0287 ± 0.0034"},
      {"sequence": "GACCAGGC", "PBM E-score of 8-mer": "0.00606 ± 0.035"},
      {"sequence": "AGAGACAG", "PBM E-score of 8-mer": "-0.132 ± 0.0054"},
      {"sequence": "AGATTAGC", "PBM E-score of 8-mer": "0.0839 ± 0.03"},
      {"sequence": "GTGCAGAA", "PBM E-score of 8-mer": "0.0654 ± 0.016"},
      {"sequence": "ATTTGGAA", "PBM E-score of 8-mer": "-0.171 ± 0.0028"},
      {"sequence": "TAATTCCA", "PBM E-score of 8-mer": "-0.124 ± 0.0074"},
      {"sequence": "CTAGGATC", "PBM E-score of 8-mer": "-0.255 ± 0.018"},
      {"sequence": "ATAGGGTA", "PBM E-score of 8-mer": "0.178 ± 0.015"},
      {"sequence": "GAGTCCTA", "PBM E-score of 8-mer": "-0.047 ± 0.074"},
      {"sequence": "AAGGTCAA", "PBM E-score of 8-mer": "-0.15 ± 0.076"},
      {"sequence": "AACTCCAC", "PBM E-score of 8-mer": "0.0837 ± 0.074"},
      {"sequence": "GCAGAGCA", "PBM E-score of 8-mer": "-0.203 ± 0.027"},
      {"sequence": "CTTGCGAC", "PBM E-score of 8-mer": "0.273 ± 0.022"},
      {"sequence": "CGGCCCCA", "PBM E-score of 8-mer": "0.126 ± 0.013"},
      {"sequence": "ATCGAGCC", "PBM E-score of 8-mer": "-0.0159 ± 0.045"},
      {"sequence": "GCTTAACA", "PBM E-score of 8-mer": "0.168 ± 0.087"},
      {"sequence": "TGAAGGCA", "PBM E-score of 8-mer": "-0.12 ± 0.017"},
      {"sequence": "CATGCATA", "PBM E-score of 8-mer": "-0.21 ± 0.03"},
      {"sequence": "TCGGTGCA", "PBM E-score of 8-mer": "-0.0952 ± 0.063"},
      {"sequence": "CTCACATA", "PBM E-score of 8-mer": "0.0666 ± 0.017"},
      {"sequence": "TAGTGGAA", "PBM E-score of 8-mer": "0.0336 ± 0.013"},
      {"sequence": "CGGCGATC", "PBM E-score of 8-mer": "-0.182 ± 0.025"},
      {"sequence": "CCGGCAGA", "PBM E-score of 8-mer": "-0.232 ± 0.11"},
      {"sequence": "GCGCCGGA", "PBM E-score of 8-mer": "0.0121 ± 0.084"},
      {"sequence": "AACTGGCG", "PBM E-score of 8-mer": "0.109 ± 0.016"},
      {"sequence": "CTACCTAG", "PBM E-score of 8-mer": "-0.0434 ± 0.12"},
      {"sequence": "AAGGTAAT", "PBM E-score of 8-mer": "-0.0882 ± 0.11"},
      {"sequence": "CGAGGGAC", "PBM E-score of 8-mer": "-0.049 ± 0.072"},
      {"sequence": "GATGTCGA", "PBM E-score of 8-mer": "0.0908 ± 0.011"},
      {"sequence": "CTAAGCCC", "PBM E-score of 8-mer": "-0.178 ± 0.085"},
      {"sequence": "TAGGAGCA", "PBM E-score of 8-mer": "0.00877 ± 0.042"},
      {"sequence": "AATATTTC", "PBM E-score of 8-mer": "0.0525 ± 0.095"},
      {"sequence": "AGTTTGCG", "PBM E-score of 8-mer": "0.033 ± 0.027"},
      {"sequence": "CGATCGTA", "PBM E-score of 8-mer": "0.00258 ± 0.013"},
      {"sequence": "CTGCCCTA", "PBM E-score of 8-mer": "-0.169 ± 0.058"},
      {"sequence": "AAGAATGG", "PBM E-score of 8-mer": "-0.118 ± 0.026"},
      {"sequence": "ATACTCCA", "PBM E-score of 8-mer": "-0.0589 ± 0.05"},
      {"sequence": "CCCGGTTA", "PBM E-score of 8-mer": "-0.191 ± 0.012"},
      {"sequence": "ACCCTGTG", "PBM E-score of 8-mer": "0.178 ± 0.052"},
      {"sequence": "GCAGCCAC", "PBM E-score of 8-mer": "0.114 ± 0.061"},
      {"sequence": "CGAACTCA", "PBM E-score of 8-mer": "0.0995 ± 0.042"},
      {"sequence": "CAATCTCA", "PBM E-score of 8-mer": "0.144 ± 0.017"},
      {"sequence": "AAACCAGT", "PBM E-score of 8-mer": "-0.184 ± 0.067"},
      {"sequence": "CGGCCGCA", "PBM E-score of 8-mer": "-0.0169 ± 0.07"},
      {"sequence": "GCGGTTCC", "PBM E-score of 8-mer": "-0.153 ± 0.0068"},
      {"sequence": "AAACGCGT", "PBM E-score of 8-mer": "0.164 ± 0.047"},
      {"sequence": "AACTCCAT", "PBM E-score of 8-mer": "0.00349 ± 0.036"},
      {"sequence": "GTGATTAA", "PBM E-score of 8-mer": "0.215 ± 0.041"},
      {"sequence": "GATTCTAC", "PBM E-score of 8-mer": "-0.217 ± 0.02"},
      {"sequence": "ACGGAATC", "PBM E-score of 8-mer": "0.0455 ± 0.0028"},
      {"sequence": "AAAAGTCG", "PBM E-score of 8-mer": "0.119 ± 0.022"},
      {"sequence": "GCACGACA", "PBM E-score of 8-mer": "0.0657 ± 0.0079"},
      {"sequence": "TCGAGAGA", "PBM E-score of 8-mer": "-0.0175 ± 0.015"},
      {"sequence": "AATTGACG", "PBM E-score of 8-mer": "0.223 ± 0.006"},
      {"sequence": "CGGATACA", "PBM E-score of 8-mer": "-0.28 ± 0.069"},
      {"sequence": "CCTTAACC", "PBM E-score of 8-mer": "-0.123 ± 0.006"},
      {"sequence": "CCAGAGCA", "PBM E-score of 8-mer": "-0.278 ± 0.039"},
      {"sequence": "ACGATTAC", "PBM E-score of 8-mer": "-0.00917 ± 0.0029"},
      {"sequence": "GATTAGGC", "PBM E-score of 8-mer": "-0.0984 ± 0.022"},
      {"sequence": "CATGGCCA", "PBM E-score of 8-mer": "-0.139 ± 0.039"},
      {"sequence": "CAGTACCA", "PBM E-score of 8-mer": "-0.0345 ± 0.056"},
      {"sequence": "AGATCCTG", "PBM E-score of 8-mer": "-0.272 ± 0.038"},
      {"sequence": "GTTACGCA", "PBM E-score of 8-mer": "-0.192 ± 0.046"},
      {"sequence": "CCGCATCA", "PBM E-score of 8-mer": "-0.0225 ± 0.028"},
      {"sequence": "CAGTGGAA", "PBM E-score of 8-mer": "-0.163 ± 0.026"},
      {"sequence": "ATGACACA", "PBM E-score of 8-mer": "0.314 ± 0.0075"},
      {"sequence": "CTTCCTCA", "PBM E-score of 8-mer": "0.121 ± 0.021"},
      {"sequence": "AATTGATA", "PBM E-score of 8-mer": "0.185 ± 0.018"},
      {"sequence": "CCCCTCTC", "PBM E-score of 8-mer": "-0.182 ± 0.028"},
      {"sequence": "ATGATCGC", "PBM E-score of 8-mer": "0.0765 ± 0.017"},
      {"sequence": "AGCGGGAA", "PBM E-score of 8-mer": "0.0926 ± 0.0051"},
      {"sequence": "ATTCGTAA", "PBM E-score of 8-mer": "-0.0658 ± 0.076"},
      {"sequence": "ATCATGTA", "PBM E-score of 8-mer": "-0.108 ± 0.14"}
    ]}
  ]
}
